Here are results for 35 compounds from the supplement of paper PMC4604168 (melanoma cell lines).

The other results are listed elsewhere or left out. Single values are uncertain, as repeats are few or missing.
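Also: cell number obtained by counting DAPI-stained nuclei in high-throughput microscope images with image analysis software, screen run in 1,536-well plates.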

The test system of this assay is WM3619. Put plainly: cell count relative to DMSO control; melanoma cells; higher = more viable cells. Particulars: library dose: low library concentration; 72 h.
In turn, `CC(C)(C)c1cnc(CSc2cnc(NC(=O)C3CCNCC3)s2)o1` + COc1ccc2c(c1)CCC1C2CCC2(C)C(NCCCCCCN3C(=O)C=CC3=O)CCC12 [U73122] (first compound 0.01 µM, partner dose 0.4 µM) returned a cell count of 109%.
Under `CC(C)(C)c1cnc(CSc2cnc(NC(=O)C3CCNCC3)s2)o1` + Oc1cc(-c2nc(-c3ccccc3)[nH]c2-c2ccncc2)ccc1Cl [L779450] (first compound 0.01 µM, partner dose 0.2 µM) stands 95.5%.
The value for `CC(C)(C)c1cnc(CSc2cnc(NC(=O)C3CCNCC3)s2)o1` + Cn1cc(/C=C2\C(=O)Nc3cccnc32)c2ccccc21 [GW441756] (first compound 0.01 µM, partner dose 0.4 µM) was 104%; that for `CN(NC(=O)CC(=O)NN(C)C(=S)c1ccccc1)C(=S)c1ccccc1` + COc1cc2ncnc(Nc3ccc(Oc4ccccc4)cc3)c2cc1OC [SrcI1] (first compound 0.006 µM, partner dose 2 µM) was 22.9%; that for `CCc1ccc(CCOc2ccc(CC3SC(=O)NC3=O)cc2)nc1` (stereo not given) [pioglitazone] + c1cc(-c2cnn3cc(-c4ccc(OCCN5CCCCC5)cc4)cnc23)ccn1 [Dorsomorphin] (first compound 2 µM, partner dose 0.4 µM) was 128%.
The value for `Cc1ccc(NC(=O)c2cccc(N(C)C)c2)cc1NC(=O)c1ccc(O)cc1` + Cn1cc(/C=C2\C(=O)Nc3cccnc32)c2ccccc21 [GW441756] (first compound 2 µM, partner dose 0.4 µM) was 112%; that for `CN(NC(=O)CC(=O)NN(C)C(=S)c1ccccc1)C(=S)c1ccccc1` + O=c1cc(-c2cccc3c2Sc2ccccc2S3)oc(N2CCOCC2)c1 [KU55933] (first compound 0.006 µM, partner dose 1 µM) was 72.8%; that for `CC(C)(C)c1cnc(CSc2cnc(NC(=O)C3CCNCC3)s2)o1` + O=C1NC(=O)/C(=C/c2ccc(-c3ccc(F)cc3O)o2)S1 [AS252424] (first compound 0.01 µM, partner dose 1 µM) was 80.7%.
`CN(NC(=O)CC(=O)NN(C)C(=S)c1ccccc1)C(=S)c1ccccc1` + O=C(Nc1ccccc1)c1cc([N+](=O)[O-])ccc1Cl [GW9662] (first compound 0.006 µM, partner dose 2 µM) showed a cell count of 33.6%.
The value for `COc1cc2c(Oc3ccc4[nH]c(C)cc4c3F)ncnc2cc1OCCCN1CCCC1` [cediranib] + O=C(O)C(=O)Nc1sc2c(c1C(=O)O)CCNC2 [TCS401] (first compound 0.4 µM, partner dose 1.66667 µM) was 94.9%; that for `CC(C)(C)c1cnc(CSc2cnc(NC(=O)C3CCNCC3)s2)o1` + O=c1cc(-c2cccc3c2Sc2ccccc2S3)oc(N2CCOCC2)c1 [KU55933] (first compound 0.01 µM, partner dose 1 µM) was 104%.
The value for `COc1cc2c(Oc3ccc4[nH]c(C)cc4c3F)ncnc2cc1OCCCN1CCCC1` [cediranib] + CCc1ccc(CCOc2ccc(CC3SC(=O)NC3=O)cc2)nc1 [pioglitazone] (first compound 0.4 µM, partner dose 2 µM) was 82.8%.
The value for `CN(NC(=O)CC(=O)NN(C)C(=S)c1ccccc1)C(=S)c1ccccc1` + O=C(O)C(=O)Nc1sc2c(c1C(=O)O)CCNC2 [TCS401] (first compound 0.006 µM, partner dose 1.66667 µM) was 59.4%.
In turn, `CN(NC(=O)CC(=O)NN(C)C(=S)c1ccccc1)C(=S)c1ccccc1` + Cn1cc(/C=C2\C(=O)Nc3cccnc32)c2ccccc21 [GW441756] (first compound 0.006 µM, partner dose 0.4 µM) registered a cell count of 58.5%.
The value for `Cc1ccc(NC(=O)c2cccc(N(C)C)c2)cc1NC(=O)c1ccc(O)cc1` + CCc1ccc(CCOc2ccc(CC3SC(=O)NC3=O)cc2)nc1 [pioglitazone] (first compound 2 µM, partner dose 2 µM) was 92.8%; that for `COc1cc2c(Oc3ccc4[nH]c(C)cc4c3F)ncnc2cc1OCCCN1CCCC1` [cediranib] + N#Cc1c(O)c2c(-c3ccc(-c4ccccc4O)cc3)csc2[nH]c1=O [A769662] (first compound 0.4 µM, partner dose 2 µM) was 112%.
Consider `CCc1ccc(CCOc2ccc(CC3SC(=O)NC3=O)cc2)nc1` (stereo not given) [pioglitazone] + Cc1cc([N+](=O)[O-])ccc1NS(=O)(=O)c1cc(Cl)ccc1Cl [FH535] (first compound 2 µM, partner dose 1 µM), for which the cell count worked out at 101%.
In turn, `CCc1ccc(CCOc2ccc(CC3SC(=O)NC3=O)cc2)nc1` (stereo not given) [pioglitazone] + COC(=O)c1sccc1S(=O)(=O)Nc1ccc(Nc2ccccc2)cc1OC [GSK0660] (first compound 2 µM, partner dose 1 µM) registered a cell count of 98.6%.
Under `COc1cc2c(Oc3ccc4[nH]c(C)cc4c3F)ncnc2cc1OCCCN1CCCC1` [cediranib] + COc1ccc(COc2ccc(Cc3cnc(N)nc3N)cc2OC)cc1 [GW2580] (first compound 0.4 µM, partner dose 1 µM) stands 115%.
With `Cc1ccc(NC(=O)c2cccc(N(C)C)c2)cc1NC(=O)c1ccc(O)cc1` + COc1ccc2c(c1)CCC1C2CCC2(C)C(NCCCCCCN3C(=O)C=CC3=O)CCC12 [U73122] (first compound 2 µM, partner dose 0.4 µM), the cell count worked out at 95.2%.
On to `CN(NC(=O)CC(=O)NN(C)C(=S)c1ccccc1)C(=S)c1ccccc1` + CCc1ccc(CCOc2ccc(CC3SC(=O)NC3=O)cc2)nc1 [pioglitazone] (first compound 0.006 µM, partner dose 2 µM), for which the cell count amounted to 70.5%.
Under `CN(NC(=O)CC(=O)NN(C)C(=S)c1ccccc1)C(=S)c1ccccc1` + Oc1nc(-c2ccc(C(F)(F)F)cc2)nc2c1CSCC2 [XAV939] (first compound 0.006 µM, partner dose 2 µM) stands 88.8%; under `CCc1ccc(CCOc2ccc(CC3SC(=O)NC3=O)cc2)nc1` (stereo not given) [pioglitazone] + CCN(CC)CCCCNc1ncc2cc(-c3cc(OC)cc(OC)c3)c(NC(=O)NC(C)(C)C)nc2n1 [PD173074] (first compound 2 µM, partner dose 0.1 µM), 112%.
Regarding `CN(NC(=O)CC(=O)NN(C)C(=S)c1ccccc1)C(=S)c1ccccc1` + Cc1cc([N+](=O)[O-])ccc1NS(=O)(=O)c1cc(Cl)ccc1Cl [FH535] (first compound 0.006 µM, partner dose 1 µM), the cell count stood at 38.5%.
As to `CC(C)(C)c1cnc(CSc2cnc(NC(=O)C3CCNCC3)s2)o1` + CCCCCCCCCCCC1=C(O)C(=O)C=C(O)C1=O [Embelin] (first compound 0.01 µM, partner dose 1.2 µM), the cell count came out at 126%.
`Cc1ccc(NC(=O)c2cccc(N(C)C)c2)cc1NC(=O)c1ccc(O)cc1` + O=C1NC(=O)/C(=C/c2ccc(-c3ccc(F)cc3O)o2)S1 [AS252424] (first compound 2 µM, partner dose 1 µM) displayed a cell count of 132%.
Under `CC(C)(C)c1cnc(CSc2cnc(NC(=O)C3CCNCC3)s2)o1` + CCN(CC)CCCCNc1ncc2cc(-c3cc(OC)cc(OC)c3)c(NC(=O)NC(C)(C)C)nc2n1 [PD173074] (first compound 0.01 µM, partner dose 0.1 µM) stands 107%; under `Cc1ccc(NC(=O)c2cccc(N(C)C)c2)cc1NC(=O)c1ccc(O)cc1` + COc1ccc(-c2ccc3c(N4CCOCC4)nc(N4C[C@@H](C)O[C@@H](C)C4)nc3n2)cc1CO [KU0063794] (first compound 2 µM, partner dose 0.02 µM), 98.6%.
Under `Cc1ccc(NC(=O)c2cccc(N(C)C)c2)cc1NC(=O)c1ccc(O)cc1` + O=C(Nc1ccccc1)c1cc([N+](=O)[O-])ccc1Cl [GW9662] (first compound 2 µM, partner dose 2 µM) stands 84.8%.
The value for `CCc1ccc(CCOc2ccc(CC3SC(=O)NC3=O)cc2)nc1` (stereo not given) [pioglitazone] + COc1ccc(-c2ccc3c(N4CCOCC4)nc(N4C[C@@H](C)O[C@@H](C)C4)nc3n2)cc1CO [KU0063794] (first compound 2 µM, partner dose 0.02 µM) was 146%; that for `COc1cc2c(Oc3ccc4[nH]c(C)cc4c3F)ncnc2cc1OCCCN1CCCC1` [cediranib] + COC(=O)c1sccc1S(=O)(=O)Nc1ccc(Nc2ccccc2)cc1OC [GSK0660] (first compound 0.4 µM, partner dose 1 µM) was 108%; that for `CN(NC(=O)CC(=O)NN(C)C(=S)c1ccccc1)C(=S)c1ccccc1` + COc1ccc(-c2ccc3c(N4CCOCC4)nc(N4C[C@@H](C)O[C@@H](C)C4)nc3n2)cc1CO [KU0063794] (first compound 0.006 µM, partner dose 0.02 µM) was 64.9%.
In turn, `CCc1ccc(CCOc2ccc(CC3SC(=O)NC3=O)cc2)nc1` (stereo not given) [pioglitazone] + COc1ccc(COc2ccc(Cc3cnc(N)nc3N)cc2OC)cc1 [GW2580] (first compound 2 µM, partner dose 1 µM) displayed a cell count of 107%.
The value for `Cc1ccc(NC(=O)c2cccc(N(C)C)c2)cc1NC(=O)c1ccc(O)cc1` + CCCCCCCCCCCC1=C(O)C(=O)C=C(O)C1=O [Embelin] (first compound 2 µM, partner dose 1.2 µM) was 108%; that for `Cc1ccc(NC(=O)c2cccc(N(C)C)c2)cc1NC(=O)c1ccc(O)cc1` + CCN(CC)CCCCNc1ncc2cc(-c3cc(OC)cc(OC)c3)c(NC(=O)NC(C)(C)C)nc2n1 [PD173074] (first compound 2 µM, partner dose 0.1 µM) was 111%.
